{"source": "patent US20210187105A1", "about": "“COMBINATION THERAPY OF ANTI-MIF ANTIBODIES AND GLUCOCORTICOIDS” (Baxalta Incorporated, priority 2012, published 2021)", "molecules": {"B1": {"name": "RAB9: anti-oxMIF antibody (IgG4); light chain SEQ ID NO: 1, heavy chain SEQ ID NO: 5; plasmids DSM 25111 and DSM 25113 (antibody)", "heavy": "EVQLLESGGGLVQPGGSLRLSCAASGFTFSIYSMNWVRQAPGKGLEWVSSIGSSGGTTYYADSVKGRFTISRDNSKNTLYLQMNSLRAEDTAVYYCAGSQWLYGMDVWGQGTTVTVSSASTKGPSVFPLAPCSRSTSESTAALGCLVKDYFPEPVTVSWNSGALTSGVHTFPAVLQSSGLYSLSSVVTVPSSSLGTKTYTCNVDHKPSNTKVDKRV[sequence of human IgG4 Fc with S228P (EU numbers) not given]", "light": "DIQMTQSPSSLSASVGDRVTITCRSSQRIMTYLNWYQQKPGKAPKLLIFVASHSQSGVPSRFRGSGSETDFTLTISGLQPEDSATYYCQQSFWTPLTFGGGTKVEIKRTVAAPSVFIFPPSDEQLKSGTASVVCLLNNFYPREAKVQWKVDNALQSGNSQESVTEQDSKDSTYSLSSTLTLSKADYEKHKVYACEVTHQGLSSPVTKSFNRGEC", "modifications": "Heavy chain of RAB9; Light chain of RAB9", "notes": "anti-oxMIF antibody (IgG4); plasmids DSM 25111 and DSM 25113"}, "B2": {"name": "RAB0: anti-oxMIF antibody (IgG4); light chain SEQ ID NO: 3, heavy chain SEQ ID NO: 7; plasmids DSM 25114 and DSM 25115 (antibody)", "heavy": "EVQLLESGGGLVQPGGSLRLSCAASGFTFSWYAMDWVRQAPGKGLEWVSGIYPSGGRTKYADSVKGRFTISRDNSKNTLYLQMNSLRAEDTAVYYCARVNVIAVAGTGYYYYGMDVWGQGTTVTVSSASTKGPSVFPLAPCSRSTSESTAALGCLVKDYFPEPVTVSWNSGALTSGVHTFPAVLQSSGLYSLSSVVTVPSSSLGTKTYTCNVDHKPSNTKVDKRV[sequence of human IgG4 Fc with S228P (EU numbers) not given]", "light": "DIQMTQSPGTLSLSPGERATLSCRASQGVSSSSLAWYQQKPGQAPRLLIYGTSSRATGIPDRFSGSASGTDFTLTISRLQPEDFAVYYCQQYGRSLTFGGGTKVEIKRTVAAPSVFIFPPSDEQLKSGTASVVCLLNNFYPREAKVQWKVDNALQSGNSQESVTEQDSKDSTYSLSSTLTLSKADYEKHKVYACEVTHQGLSSPVTKSFNRGEC", "modifications": "Heavy chain of RAB0; Light chain of RAB0", "notes": "anti-oxMIF antibody (IgG4); plasmids DSM 25114 and DSM 25115"}, "B3": {"name": "RAM9: anti-oxMIF antibody; heavy chain SEQ ID NO: 11, light chain SEQ ID NO: 12; same specificity as RAB9 (antibody)", "heavy": "EVQLLESGGGLVQPGGSLRLSCAASGFTFSIYSMNWVRQAPGKGLEWVSSIGSSGGTTYYADSVKGRFTISRDNSKNTLYLQMNSLRAEDTAVYYCAGSQWLYGMDVWGQGTTVTVSSASTKGPSVFPLAPSSKSTSGGTAALGCLVKDYFPEPVTVSWNSGALTSGVHTFPAVLQSSGLYSLSSVVTVPSSSLGTQTYICNVNHKPSNTKVDKRV[sequence of human IgG1 Fc not given]", "light": "B1 light", "modifications": "RAM9hc; RAM9lc", "notes": "anti-oxMIF antibody; same specificity as RAB9"}, "B4": {"name": "RAM4: anti-oxMIF antibody; heavy chain SEQ ID NO: 13, light chain SEQ ID NO: 14; same specificity as RAB4 (antibody)", "heavy": "EVQLLESGGGLVQPGGSLRLSCAASGFTFSIYAMDWVRQAPGKGLEWVSGIVPSGGFTKYADSVKGRFTISRDNSKNTLYLQMNSLRAEDTAVYYCARVNVIAVAGTGYYYYGMDVWGQGTTVTVSSASTKGPSVFPLAPSSKSTSGGTAALGCLVKDYFPEPVTVSWNSGALTSGVHTFPAVLQSSGLYSLSSVVTVPSSSLGTQTYICNVNHKPSNTKVDKRV[sequence of human IgG1 Fc not given]", "light": "B2 light", "modifications": "RAM4hc; RAM4lc", "notes": "anti-oxMIF antibody; same specificity as RAB4"}, "B5": {"name": "RAM0: anti-oxMIF antibody; heavy chain SEQ ID NO: 9, light chain SEQ ID NO: 10; same specificity as RAB0 (antibody)", "heavy": "B4 heavy with I31W, V52Y, F57R", "light": "B2 light", "modifications": "RAM0hc; RAM0lc", "notes": "anti-oxMIF antibody; same specificity as RAB0"}, "B6": {"name": "RAB4: anti-oxMIF antibody (IgG4); light chain SEQ ID NO: 2, heavy chain SEQ ID NO: 6; plasmids DSM 25110 and DSM 25112 (antibody)", "heavy": "B2 heavy with W31I, Y52V, R57F", "light": "B2 light", "modifications": "Heavy chain of RAB4; Light chain of RAB4", "notes": "anti-oxMIF antibody (IgG4); plasmids DSM 25110 and DSM 25112"}}, "key": {"[1]": {"target": "T1, oxMIF (Homo sapiens, UniProt P14174)", "T1 sequence (P14174 1-115)": "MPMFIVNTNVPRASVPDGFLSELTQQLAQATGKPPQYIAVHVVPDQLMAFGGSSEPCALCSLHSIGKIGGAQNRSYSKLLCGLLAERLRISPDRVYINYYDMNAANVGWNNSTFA", "assay": "Differential binding of anti-MIF antibodies to oxMIF (ELISA / Biacore surface plasmon resonance)", "protocol": "(§1) The anti-oxMIF antibodies described in this invention are able to discriminate between ox and red MIF, which are generated by mild oxidation or reduction, respectively. The anti-oxMIF antibodies are useful to specifically detect oxMIF. Discrimination between these conformers is assessed by ELISA or surface plasmon resonance. Both techniques can be performed as well known to a person skilled in the art and as described below.\n(§2) The antibodies were coated on a CM5 (=carboxymethylated dextran) chip and recombinant MIF protein, pre-incubated with 0.2% Proclin300, were injected. (Proclin300 consists of oxidative isothiazolones that stabilize the oxMIF structure)."}, "[2]": {"target": "T2, redMIF (Homo sapiens, UniProt P14174)", "T2 sequence (P14174 1-115)": "T1 sequence (P14174 1-115)", "assay": "Differential binding of anti-MIF antibodies to redMIF (ELISA / Biacore surface plasmon resonance)", "settings": "for binding of recombinant MIF proteins to coated antibody (Biacore): native HBS-EP buffer without addition of ProClin300", "protocol": "as §1, §2"}, "[3]": {"test_system": "immune mediated-nephrotoxic nephritis (NTN) in Wistar Kyoto (WKY) rats", "assay": "Animal model for crescentic glomerulonephritis (nephrotoxic nephritis)", "type": "in vivo, rat", "settings": "days 4 and 6 after induction; for reduction of albuminuria / reduction of crescent counts / reduction of macrophage infiltration: day 8", "source_text": "This model is recognized in the art as predictable to show the effects of the invention. It is suitable to show the effects of the combination therapy over the complete range of diseases which can be subsumed under the above definition of “MIF related diseases” particularly, this model is suitable for the following diseases: Lupus nephritis, anti-GBM nephritis, ANCA nephritis, IgA nephropathy. Dexamethasone is recognized in the art as predictive for a respective glucocorticoid in the treatment of a human. […] This model has a rapid onset of disease with macrophage infiltration, fibrin deposition and tissue destruction 12. NTN is induced in male WKY rats by single intravenous injection of 0.1 ml rabbit anti-rat glomerular basement membrane serum (day 0). mAb and Dexamethasone is injected intraperitoneally at time points and dosages described below. 24 hour urine samples are collected using metabolic cages before induction of glomerulonephritis and at various time intervals after induction of nephritis for quantification of proteinuria. Sections of renal tissues are frozen for subsequent analysis by immunohistology. Morphology of renal injury is assessed in haematoxylin/eosin (H&E) and periodic acid-Schiff (PAS) stained renal tissue sections. Macrophage is detected by immunoperoxidase technique and using the monoclonal mouse antibody ED1 (Serotec, U C). The animal model was described in detail (Tam F W K, Smith J, Morel D, Karkar A M, Thompson E M, Cook H T, Pusey C D: Development of scarring and renal failure in a rat model of crescentic glomerulonephritis. Nephrol Dial Transplant 14:1658-1666, 1999)."}}, "note": "Residue numbers refer to the chain shown, from its start."}
{"molecule": "B1", "values": [{"measurement": "binding to oxMIF", "setting": "[1]", "value": "specifically bind to oxMIF"}, {"measurement": "binding to redMIF (MIF in its reduced state)", "setting": "[2]", "value": "incapable of binding to redMIF"}, {"measurement": "binding of recombinant MIF proteins to coated antibody (Biacore)", "setting": "[2]", "value": "none of the recombinant MIF proteins bound"}]}
{"molecule": "B2", "values": [{"measurement": "binding to oxMIF", "setting": "[1]", "value": "specifically bind to oxMIF"}, {"measurement": "binding to redMIF (MIF in its reduced state)", "setting": "[2]", "value": "incapable of binding to redMIF"}, {"measurement": "binding of recombinant MIF proteins to coated antibody (Biacore)", "setting": "[2]", "value": "none of the recombinant MIF proteins bound"}]}
{"molecule": "B3", "values": [{"measurement": "binding to oxMIF", "setting": "[1]", "value": "This binding is also observed"}, {"measurement": "binding to redMIF (MIF in its reduced state)", "setting": "[2]", "value": "do not bind to unmodified MIF in its reduced state"}, {"measurement": "reduction of albuminuria", "setting": "[3]; 60 mg/kg intraperitoneal", "value": "approx. 22%"}, {"measurement": "reduction of crescent counts", "setting": "[3]; 60 mg/kg intraperitoneal", "value": "approximately 10%"}, {"measurement": "reduction of macrophage infiltration", "setting": "[3]; 60 mg/kg intraperitoneal", "value": "approximately 26%"}, {"measurement": "reduction of albuminuria", "setting": "[3]; 120 mg/kg intraperitoneal", "value": "approx. 25%"}, {"measurement": "reduction of crescent counts", "setting": "[3]; 120 mg/kg intraperitoneal", "value": "approximately 12%"}, {"measurement": "reduction of macrophage infiltration", "setting": "[3]; 120 mg/kg intraperitoneal", "value": "approximately 38%"}, {"measurement": "11-13 in urine", "setting": "[3]; intraperitoneal", "value": "reduced"}, {"measurement": "MIF in urine", "setting": "[3]; intraperitoneal", "value": "reduced"}, {"measurement": "TNFα in urine", "setting": "[3]; intraperitoneal", "value": "reduced"}]}
{"molecule": "B4", "values": [{"measurement": "binding to oxMIF", "setting": "[1]", "value": "This binding is also observed"}, {"measurement": "binding to redMIF (MIF in its reduced state)", "setting": "[2]", "value": "do not bind to unmodified MIF in its reduced state"}]}
{"molecule": "B5", "values": [{"measurement": "binding to oxMIF", "setting": "[1]", "value": "This binding is also observed"}, {"measurement": "binding to redMIF (MIF in its reduced state)", "setting": "[2]", "value": "do not bind to unmodified MIF in its reduced state"}]}
{"molecule": "B6", "values": [{"measurement": "binding to oxMIF", "setting": "[1]", "value": "specifically bind to oxMIF"}, {"measurement": "binding to redMIF (MIF in its reduced state)", "setting": "[2]", "value": "incapable of binding to redMIF"}]}
